{"source": "the supplement of paper PMC3334620", "note": "In all, about 33,000 sequences were measured (“E-score (-0.5 to 0.5)”: median about -0.01, highest 2% from about 0.26 on). The list shows a part of the results.", "data": [{"molecular_target": "Ste12 (UniProt P13574)", "test": "PBM E-score (8-mer binding enrichment) (E-score (-0.5 to 0.5)); higher = stronger / more preferred TF binding; most listed sequences are background and not binding sites", "conditions": "protein concentration: 200 nM; construct: GST-DNA-binding domain", "summary_of_the_method": "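Detection of bound protein used fluorescent anti-GST, with scans normalised by masliner. The proteins were GST-tagged yeast transcription factors applied at about 100-200 nM to universal all-10-mer Agilent arrays made double-stranded by primer extension. Each ungapped eight-base word, pooled with its reverse complement, was scored with an E-score from the Universal PBM Analysis Suite.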", "values": [{"sequence": "GAGGGAGC", "PBM E-score": -0.333}, {"sequence": "CCGGCGAG", "PBM E-score": -0.0891}, {"sequence": "CGTCAGTA", "PBM E-score": -0.146}, {"sequence": "AAAACGAG", "PBM E-score": 0.131}, {"sequence": "ACAGTAGG", "PBM E-score": -0.0853}, {"sequence": "AGCGCACG", "PBM E-score": -0.01}, {"sequence": "TAGGGAGA", "PBM E-score": -0.0245}, {"sequence": "AGGCGTGC", "PBM E-score": -0.163}, {"sequence": "ATTCAGTG", "PBM E-score": 0.0191}, {"sequence": "AGACTATC", "PBM E-score": -0.148}, {"sequence": "TCCTTAGA", "PBM E-score": -0.258}, {"sequence": "CACGTCCA", "PBM E-score": -0.175}, {"sequence": "AGACCTGA", "PBM E-score": 0.0247}, {"sequence": "ATTAGTTA", "PBM E-score": 0.181}, {"sequence": "CAGCCGAC", "PBM E-score": 0.015}, {"sequence": "ATGCTGAA", "PBM E-score": 0.104}, {"sequence": "AAGCCATC", "PBM E-score": 0.0411}, {"sequence": "ATCGCGCA", "PBM E-score": 0.0139}, {"sequence": "GAACACAA", "PBM E-score": 0.00368}, {"sequence": "GTCATCAC", "PBM E-score": -0.161}, {"sequence": "GCCTCTCC", "PBM E-score": -0.136}, {"sequence": "AATATTAG", "PBM E-score": 0.159}, {"sequence": "CGGCGTAA", "PBM E-score": 0.089}, {"sequence": "CTCATACA", "PBM E-score": -0.0498}, {"sequence": "AATTCCAA", "PBM E-score": 0.133}, {"sequence": "CTTCCAGA", "PBM E-score": -0.0768}, {"sequence": "TATTAGGA", "PBM E-score": -0.0493}, {"sequence": "AAACAGAA", "PBM E-score": 0.201}, {"sequence": "CCTCACTA", "PBM E-score": -0.0589}, {"sequence": "ATCGGCCC", "PBM E-score": 0.00036}, {"sequence": "ACGCCTGC", "PBM E-score": -0.0299}, {"sequence": "GCATCCGC", "PBM E-score": -0.00053}, {"sequence": "ACTTTAAG", "PBM E-score": 0.225}, {"sequence": "CCTTTTGC", "PBM E-score": -0.0993}, {"sequence": "ACACGCAG", "PBM E-score": -0.138}, {"sequence": "GGGATAAA", "PBM E-score": 0.271}, {"sequence": "GGTCAAAC", "PBM E-score": 0.0628}, {"sequence": "CCCTCGCA", "PBM E-score": 0.0678}, {"sequence": "GCAACTGA", "PBM E-score": -0.0568}, {"sequence": "GTCGGAAC", "PBM E-score": 0.0759}, {"sequence": "GCTCAGAA", "PBM E-score": 0.0322}, {"sequence": "AGGATCCC", "PBM E-score": -0.0457}, {"sequence": "GCTCCTAA", "PBM E-score": -0.175}, {"sequence": "GATCTCGA", "PBM E-score": -0.0296}, {"sequence": "ACTGGCAG", "PBM E-score": 0.0721}, {"sequence": "AGATACAG", "PBM E-score": 0.0825}, {"sequence": "ACCTGAGT", "PBM E-score": "-3e-05"}, {"sequence": "AGGCCTTC", "PBM E-score": -0.102}, {"sequence": "CGACCTTC", "PBM E-score": -0.0872}, {"sequence": "CGACAGCA", "PBM E-score": -0.0436}, {"sequence": "GACATGCA", "PBM E-score": 0.0546}, {"sequence": "ATGGGTCG", "PBM E-score": 0.0354}, {"sequence": "GTCGCATA", "PBM E-score": 0.139}, {"sequence": "GCATGTGA", "PBM E-score": -0.0635}, {"sequence": "ATCCGACG", "PBM E-score": -0.00517}, {"sequence": "AGAGCGCT", "PBM E-score": -0.0685}, {"sequence": "GGTTACTA", "PBM E-score": 0.0972}, {"sequence": "AACACATC", "PBM E-score": 0.0427}, {"sequence": "AGTTGAAG", "PBM E-score": -0.0305}, {"sequence": "CCGCAGCC", "PBM E-score": -0.0732}, {"sequence": "CACATAAC", "PBM E-score": 0.13}, {"sequence": "ACACCCTA", "PBM E-score": 0.0499}, {"sequence": "AAGCAACC", "PBM E-score": 0.00622}, {"sequence": "AACTGACG", "PBM E-score": -0.0482}, {"sequence": "CCGTTCGC", "PBM E-score": -0.216}, {"sequence": "CCTCTGGA", "PBM E-score": -0.0276}, {"sequence": "ACATAAGG", "PBM E-score": 0.149}, {"sequence": "GCCTGTCA", "PBM E-score": -0.18}, {"sequence": "ATCGGAAT", "PBM E-score": 0.126}, {"sequence": "AGGAACCG", "PBM E-score": -0.00564}, {"sequence": "CACGCGAC", "PBM E-score": -0.183}, {"sequence": "CGCGCATA", "PBM E-score": -0.00438}, {"sequence": "AGGACGAT", "PBM E-score": -0.0289}, {"sequence": "GGACGGTA", "PBM E-score": -0.0987}, {"sequence": "CCCTTGTC", "PBM E-score": -0.0531}, {"sequence": "GGAGATAA", "PBM E-score": 0.0244}, {"sequence": "ATAGTGCC", "PBM E-score": -0.0186}, {"sequence": "CCGCACGC", "PBM E-score": -0.189}, {"sequence": "ACCTTACA", "PBM E-score": 0.0584}, {"sequence": "AAGAGATT", "PBM E-score": 0.161}, {"sequence": "TAAGGCTA", "PBM E-score": 0.0255}, {"sequence": "AAGCAATG", "PBM E-score": 0.0724}, {"sequence": "GCGACGAA", "PBM E-score": 0.00626}, {"sequence": "ACGTAAAA", "PBM E-score": 0.161}, {"sequence": "CCTTTAAA", "PBM E-score": 0.0788}, {"sequence": "CCGAATCC", "PBM E-score": 0.119}, {"sequence": "CCGATGAG", "PBM E-score": -0.215}, {"sequence": "CCATTGCC", "PBM E-score": 0.067}, {"sequence": "GCTCAAGA", "PBM E-score": -0.195}, {"sequence": "CTGTATTC", "PBM E-score": 0.0934}, {"sequence": "GGTGTGTA", "PBM E-score": -0.0827}, {"sequence": "AGTCTCCA", "PBM E-score": -0.292}, {"sequence": "CTCCGCGA", "PBM E-score": -0.0599}, {"sequence": "CGCTCGCC", "PBM E-score": 0.0662}, {"sequence": "ATCTCACC", "PBM E-score": -0.00071}, {"sequence": "ACCTTGAC", "PBM E-score": -0.0554}, {"sequence": "ACATCCTC", "PBM E-score": 0.102}, {"sequence": "CTCTTGCA", "PBM E-score": -0.0675}, {"sequence": "TAATGGCA", "PBM E-score": 0.203}, {"sequence": "TTGGCAAA", "PBM E-score": 0.136}, {"sequence": "ACCATGAT", "PBM E-score": -0.123}, {"sequence": "CTAGTCAA", "PBM E-score": -0.0166}, {"sequence": "CGGCCAAG", "PBM E-score": -0.0734}, {"sequence": "GGGTAGAC", "PBM E-score": -0.188}, {"sequence": "TAACCTTA", "PBM E-score": 0.0628}, {"sequence": "AATATACA", "PBM E-score": 0.144}, {"sequence": "GGTGGTGA", "PBM E-score": 0.0764}, {"sequence": "CGTGTTCA", "PBM E-score": 0.0516}, {"sequence": "ACGAACTC", "PBM E-score": 0.0682}, {"sequence": "ATATGTCG", "PBM E-score": 0.0565}, {"sequence": "ATTTAAAC", "PBM E-score": 0.207}, {"sequence": "AGTCACTG", "PBM E-score": -0.0698}, {"sequence": "CTCCTTAA", "PBM E-score": -0.141}, {"sequence": "GGCTGGAC", "PBM E-score": -0.182}, {"sequence": "CAGGACGG", "PBM E-score": -0.112}, {"sequence": "ATCTCAAT", "PBM E-score": 0.0795}, {"sequence": "ACAGTGCT", "PBM E-score": 0.0295}, {"sequence": "ACGCTAAT", "PBM E-score": -0.0127}, {"sequence": "AGTCTCGG", "PBM E-score": -0.188}, {"sequence": "ATGGCATA", "PBM E-score": 0.103}, {"sequence": "AGCCCATG", "PBM E-score": -0.0269}, {"sequence": "CTTATATC", "PBM E-score": 0.0996}, {"sequence": "AGGATAGA", "PBM E-score": 0.0956}, {"sequence": "CCTAATCA", "PBM E-score": 0.209}, {"sequence": "AGATCCCC", "PBM E-score": -0.016}, {"sequence": "CTCTTAAA", "PBM E-score": 0.187}, {"sequence": "CCTTTGGA", "PBM E-score": -0.103}, {"sequence": "ATTACTTC", "PBM E-score": -0.0702}, {"sequence": "CACTCACC", "PBM E-score": -0.0514}, {"sequence": "AAGGCTCT", "PBM E-score": -0.138}, {"sequence": "AGTCCCCC", "PBM E-score": -0.266}, {"sequence": "AGAAGAAT", "PBM E-score": -0.162}, {"sequence": "ATGTCCCC", "PBM E-score": 0.0783}, {"sequence": "GAGGTGCA", "PBM E-score": -0.0509}, {"sequence": "AGAGAAAT", "PBM E-score": 0.0896}, {"sequence": "AAACGTGG", "PBM E-score": 0.0452}, {"sequence": "CGTTCCTA", "PBM E-score": 0.00679}, {"sequence": "AAATGAAT", "PBM E-score": 0.108}, {"sequence": "AGATAATA", "PBM E-score": 0.137}, {"sequence": "AAAGCGCC", "PBM E-score": -0.0182}, {"sequence": "ATACTGCA", "PBM E-score": 0.113}, {"sequence": "CGCCACTC", "PBM E-score": 0.123}, {"sequence": "CAGATCAG", "PBM E-score": 0.0568}, {"sequence": "ACTGGATC", "PBM E-score": 0.0684}, {"sequence": "CTATCCAC", "PBM E-score": -0.0583}, {"sequence": "AGCCCTAA", "PBM E-score": 0.0362}, {"sequence": "ACACACGA", "PBM E-score": 0.0703}, {"sequence": "CGACTATA", "PBM E-score": 0.101}, {"sequence": "ACTTTGGC", "PBM E-score": -0.154}, {"sequence": "ACTATCGA", "PBM E-score": -0.0428}, {"sequence": "ATAAAACG", "PBM E-score": 0.37}, {"sequence": "CCGCAGCG", "PBM E-score": -0.033}, {"sequence": "GAACCGTA", "PBM E-score": -0.202}, {"sequence": "GCGTAAAC", "PBM E-score": 0.0347}, {"sequence": "CTCGCTGA", "PBM E-score": 0.0712}, {"sequence": "CAAACGGG", "PBM E-score": 0.0663}, {"sequence": "AGGGGTGA", "PBM E-score": 0.0141}, {"sequence": "CGAGCTCC", "PBM E-score": -0.0186}, {"sequence": "GTTCCTAA", "PBM E-score": -0.00472}, {"sequence": "CCAACTCA", "PBM E-score": 0.0106}, {"sequence": "ACATTGAC", "PBM E-score": 0.0479}, {"sequence": "GCATGAGA", "PBM E-score": -0.0163}, {"sequence": "CCTCACAC", "PBM E-score": -0.033}, {"sequence": "ACTACTGC", "PBM E-score": -0.0446}, {"sequence": "CAAAGGTA", "PBM E-score": -0.022}, {"sequence": "TGTTCCAA", "PBM E-score": 0.139}, {"sequence": "GGCACAAC", "PBM E-score": -0.00342}, {"sequence": "AGAACCGA", "PBM E-score": -0.0635}, {"sequence": "GCGACCAC", "PBM E-score": -0.0209}, {"sequence": "GACTAGTC", "PBM E-score": -0.203}, {"sequence": "AGTATACC", "PBM E-score": -0.00913}, {"sequence": "CAGAACCC", "PBM E-score": -0.0204}]}]}
